Measurements published in paper PMC4336329 (PLoS ONE, 2015).
In all, about 310,000 compounds went through this assay and about 14,000 (4.5%) showed an effect of 50% or more. The effect is printed as a negative number. This is one part of the list.

These compounds were tested against human ether-à-go-go-related gene (hERG) potassium channel (human, UniProt Q12809) (assay: primary screen, population patch clamp on CHO cells stably expressing hERG).
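Also: peak tail current of the secondary pulse compared with the same well before compound.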

Sequence of human ether-à-go-go-related gene (hERG) potassium channel (Q12809 whole entry, looked up): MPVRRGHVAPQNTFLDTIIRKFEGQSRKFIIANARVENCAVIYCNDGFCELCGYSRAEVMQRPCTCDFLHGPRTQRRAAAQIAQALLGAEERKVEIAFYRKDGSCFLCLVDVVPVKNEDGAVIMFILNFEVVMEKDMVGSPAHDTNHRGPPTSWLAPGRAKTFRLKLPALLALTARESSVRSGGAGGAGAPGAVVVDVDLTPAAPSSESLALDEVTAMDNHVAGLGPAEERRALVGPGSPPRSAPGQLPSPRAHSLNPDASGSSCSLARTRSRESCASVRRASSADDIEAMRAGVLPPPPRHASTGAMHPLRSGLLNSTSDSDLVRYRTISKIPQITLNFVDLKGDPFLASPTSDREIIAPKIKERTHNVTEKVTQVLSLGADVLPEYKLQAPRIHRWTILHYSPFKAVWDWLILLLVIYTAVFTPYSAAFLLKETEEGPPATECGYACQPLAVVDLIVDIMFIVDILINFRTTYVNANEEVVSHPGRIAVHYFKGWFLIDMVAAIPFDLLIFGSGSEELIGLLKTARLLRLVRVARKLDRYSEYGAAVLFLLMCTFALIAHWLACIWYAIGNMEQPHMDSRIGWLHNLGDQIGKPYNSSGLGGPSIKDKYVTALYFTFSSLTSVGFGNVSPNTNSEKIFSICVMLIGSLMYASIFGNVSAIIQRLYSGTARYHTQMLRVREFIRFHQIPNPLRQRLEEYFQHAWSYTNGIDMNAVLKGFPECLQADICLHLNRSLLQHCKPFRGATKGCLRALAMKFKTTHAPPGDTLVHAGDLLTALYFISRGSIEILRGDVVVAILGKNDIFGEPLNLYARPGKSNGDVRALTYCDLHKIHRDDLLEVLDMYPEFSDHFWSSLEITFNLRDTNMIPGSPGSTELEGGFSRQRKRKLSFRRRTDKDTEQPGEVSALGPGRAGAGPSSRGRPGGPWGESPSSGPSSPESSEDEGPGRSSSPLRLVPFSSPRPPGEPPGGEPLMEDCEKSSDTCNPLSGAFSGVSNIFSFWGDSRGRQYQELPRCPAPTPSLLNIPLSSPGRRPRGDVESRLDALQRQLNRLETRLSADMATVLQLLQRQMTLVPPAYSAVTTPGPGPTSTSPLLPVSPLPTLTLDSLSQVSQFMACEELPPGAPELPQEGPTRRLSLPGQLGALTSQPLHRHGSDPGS

Going from Cn1c(=O)c(N=O)c(N)n(Cc2ccccc2)c1=S to CCOC(=O)Cc1csc(SCC(=O)N(CC(C)C)c2c(N)n(Cc3ccccc3)c(=O)[nH]c2=O)n1, the “hERG current change (%, negative = inhibition) at 10uM” value falls from 7.27% to 1.41%.

First: N#CC1(NC(=O)COC(=O)c2ccc(Cl)nc2)CCCCC1
Second: O=C(CN1C(=O)NC2(CCCC2)C1=O)Nc1ccccc1F
The “hERG current change (%, negative = inhibition) at 10uM” value of the first is higher: 10.9% for the first, -2.72% for the second.

Going from COc1cccc(OCCNc2cc(Cl)ccc2[N+](=O)[O-])c1 to COc1ccc2oc(=N)c(C(=O)Nc3ccccc3Cl)cc2c1, the “hERG current change (%, negative = inhibition) at 10uM” value falls from 11.3% to 2.18%.

First: Cc1cc(C)cc(-n2ncc3c2CCCC3NC(=O)CN2CCCC2=O)c1 (centres unmarked)
Second: CCn1ccc(C(=O)NCCCN2CCCC2=O)n1
The “hERG current change (%, negative = inhibition) at 10uM” value of the first is higher: 30.3% for the first, -18.2% for the second.

Compared with CC(=O)N1c2ccc(S(=O)(=O)N(C)CC(=O)NC(C)c3ccccc3)cc2CC1C (centres unmarked), CC(C)C(=O)N1CCN(c2ccccc2NC(=O)COc2ccccc2)CC1 is lower in “hERG current change (%, negative = inhibition) at 10uM” value: 1.89% for the first, -57.6% for the second.

Going from Cc1cc([N+](=O)[O-])cc2c1NCC1CC=CC21 (centres unmarked) to Cc1ccc(CSCCNC(=O)c2cccc([N+](=O)[O-])c2)cc1, the “hERG current change (%, negative = inhibition) at 10uM” value falls from -30.7% to -64.1%.

Going from O=C(Nc1ccccc1F)N1CCc2ccccc2C1 to CCC(=O)c1ccc(OCC(O)CN2CCc3ccccc3C2)cc1.Cl (centres unmarked), the “hERG current change (%, negative = inhibition) at 10uM” value falls from 16.8% to -63.7%.

Going from O=C(CSc1nnc(CNC(=O)c2cccs2)o1)NC1CCCCC1 to CCOC(=O)CCNC(=O)N1CCCC(CNS(=O)(=O)c2cccs2)C1 (centres unmarked), the “hERG current change (%, negative = inhibition) at 10uM” value rises from -24% to 11.7%.

Going from CN(C)S(=O)(=O)Nc1ccc(C(=O)O)cc1 to Cc1ccc(NC(=O)c2ccc(OC(=O)c3ccco3)cc2)cc1, the “hERG current change (%, negative = inhibition) at 10uM” value rises from -1.57% to 18.3%.

Compared with CC(=O)c1cc2c(cc1N)OCO2, CC1Oc2ccccc2OC1(O)c1ccccn1 (centres unmarked) is lower in “hERG current change (%, negative = inhibition) at 10uM” value: 0.058% for the first, -3.89% for the second.

Going from COc1ccc(N2CC(C)(C)C2=O)cc1 to COc1ccc(Cc2c(O)nc[nH]c2=O)cc1, the “hERG current change (%, negative = inhibition) at 10uM” value rises from 18.7% to 24.7%.

Compared with CCO[C@@H]1OC(C(=O)N2CCN(Cc3ccccc3)CC2)=C[C@H](c2ccc(C(F)(F)F)cc2)[C@H]1CCCO, CCC(=O)Nc1ccc(N2CCN(Cc3ccccc3)CC2)cc1 is lower in “hERG current change (%, negative = inhibition) at 10uM” value: -19.7% for the first, -25.9% for the second.

First: CC1CCN(S(=O)(=O)c2ccc(C(=O)N3CCCC(C(F)(F)F)C3)cc2)CC1 (centres unmarked)
Second: CCC(=O)c1ccc(OCC(O)CN2CCN(S(=O)(=O)N3CCCCC3)CC2)cc1 (centres unmarked)
The “hERG current change (%, negative = inhibition) at 10uM” value of the first is higher: -26.1% for the first, -55.1% for the second.

Compared with O=C(c1cccc(C(F)(F)F)c1)C1CCCN(C(=O)CCCn2cncn2)C1 (centres unmarked), CC(=O)c1cccc(NC(=O)N2CCCC2C(=O)Nc2c(C)cccc2C)c1 (centres unmarked) is higher in “hERG current change (%, negative = inhibition) at 10uM” value: -34.7% for the first, 3.84% for the second.

First: CCOCCN(C(=O)c1ccccc1Cl)c1ccccc1
Second: O=[N+]([O-])c1ccccc1CN1CCN(S(=O)(=O)c2ccccc2)CC1
The “hERG current change (%, negative = inhibition) at 10uM” value of the first is higher: 13.2% for the first, -15.3% for the second.

First: CCOc1ccc(C(=O)n2cnnc2N)cc1
Second: CCOc1ccc(OCCCC(=O)N2CCN(S(=O)(=O)c3ccc(Cl)cc3)CC2)cc1
The “hERG current change (%, negative = inhibition) at 10uM” value of the first is higher: 12.7% for the first, 1.78% for the second.

Going from Cc1ccc(C)c(OCC(=O)Nc2ccccc2C(=O)NC2CC2)c1 to Cc1ccc(Cl)cc1OCC(=O)NCCOC(=O)Nc1sc(=S)n(C)c1C, the “hERG current change (%, negative = inhibition) at 10uM” value falls from 7.74% to -14.1%.

First: COCC1CCN(Cc2c(C(=O)N3CCc4ccccc4C3)nc3ccc(Cl)cn23)C1 (centres unmarked)
Second: Cc1cccc(C)c1NC(=O)c1cccc2c1C(=O)N(C1CCCCC1)C2
The “hERG current change (%, negative = inhibition) at 10uM” value of the first is lower: -16.3% for the first, -7.01% for the second.

First: CC1CCC/C=C/C2CC(O)CC2C(O)/C=C/C(=O)O1 (centres unmarked)
Second: COC(=O)c1ccc([C@H](NC(=O)c2ccco2)[C@]2(C)C[C@H]2C2CCCCC2)cc1
The “hERG current change (%, negative = inhibition) at 10uM” value of the first is lower: -2.12% for the first, 9.14% for the second.

Compared with CC(C)(C)c1ccc(C(=O)NNc2cc(Cl)cc(Cl)c2)cc1, O=C(NCCNC(=O)c1ccc([N+](=O)[O-])cc1)c1ccncc1 is lower in “hERG current change (%, negative = inhibition) at 10uM” value: 13.6% for the first, 12% for the second.

Going from COc1ccc(Cl)cc1NC(=O)CN1C(=O)NC(C)(Cc2ccc(OC)c(OC)c2)C1=O (centres unmarked) to COc1ccccc1/C=C1\SC(=S)N(CCC(=O)Nc2cccc(O)c2)C1=O, the “hERG current change (%, negative = inhibition) at 10uM” value rises from -5.21% to 14.1%.

Going from CC(=O)Nc1ccc(-c2csc(NC=C3C(=O)OC(C)(C)OC3=O)n2)cc1 to Cc1ccc(-c2nc(CNC(=O)c3ccco3)cs2)cc1, the “hERG current change (%, negative = inhibition) at 10uM” value falls from 27.5% to -13.6%.

Going from Cc1cc(N)n(-c2ccccn2)n1 to Cc1nc(SCC(=O)NCCc2ccccc2)nc(C)c1C, the “hERG current change (%, negative = inhibition) at 10uM” value falls from 12.9% to 6.55%.

Compared with CCCCOC(=O)C(C)Nc1n[nH]c(=O)[nH]c1=O (centres unmarked), CCOC(=O)c1c(O)c(Cl)c(C)[nH]c1=O is higher in “hERG current change (%, negative = inhibition) at 10uM” value: 15.9% for the first, 19.7% for the second.

First: CC1=NN(C(=O)Cc2ccc([N+](=O)[O-])cc2)C(O)(c2cccnc2)C1 (centres unmarked)
Second: Cc1nn(Cc2ccc(Cl)cc2)c(C)c1NC(=O)CCCn1nc(C)c([N+](=O)[O-])c1C
The “hERG current change (%, negative = inhibition) at 10uM” value of the first is higher: -23.8% for the first, -64.5% for the second.

Compared with Cc1cccc(C(=O)NCCc2csc(C)n2)c1, O=C(Cc1cccs1)NCCc1csc(-c2ccccc2)n1 is lower in “hERG current change (%, negative = inhibition) at 10uM” value: 9.69% for the first, 4.9% for the second.

Compared with COc1cc(CN2CCNC(=O)C2CC(=O)NC2CCC2)cc(OC)c1 (centres unmarked), COc1ccc(-c2nc(CN3CCCCC3c3cccnc3)c(C)o2)c(F)c1 (centres unmarked) is lower in “hERG current change (%, negative = inhibition) at 10uM” value: 8.68% for the first, -35.9% for the second.

Compared with c1ccc2c(c1)[nH]c1ccncc12, COc1cccc(-n2c(=O)c3ccccc3n3c(=S)[nH]nc23)c1 is higher in “hERG current change (%, negative = inhibition) at 10uM” value: -6.67% for the first, 27.6% for the second.

First: CCOc1ccc(NC(=O)C2CCCN2S(=O)(=O)c2ccc3c(c2)C(C)(C)C(=O)N3C)cc1 (centres unmarked)
Second: COc1ccc(N2CCN(C(=O)COc3ncnc4ccccc34)CC2)cc1
The “hERG current change (%, negative = inhibition) at 10uM” value of the first is higher: -6.75% for the first, -7.2% for the second.

With CC1SC(=NC(=O)C(C)N2C(=O)c3ccccc3C2=O)NC1=O (centres unmarked) the “hERG current change (%, negative = inhibition) at 10uM” value was 6.08%.
